The values that follow come from publication PMC6919601, “Identification of Plasmodium dipeptidyl aminopeptidase allosteric inhibitors by high throughput screening” (PLoS ONE, 2019).

The structures appear in SMILES notation. Out of some 110,000 compounds screened, about 230 (0.21%) showed an effect of 50% or more. The list shows a part of the results.
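Further: 30 min substrate incubation versus DMSO and 10 µM JCP410 controls.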

The target in this assay is DPAP1 (Plasmodium falciparum, UniProt Q8IIJ9). The assay can be described thus: primary screen, percent inhibition; read by cleavage of a fluorogenic dipeptide substrate; higher = more effect of the substance. Further details: species or system P. falciparum D10 trophozoite lysates; single well.
Chain of DPAP1 (Q8IIJ9 whole entry, looked up): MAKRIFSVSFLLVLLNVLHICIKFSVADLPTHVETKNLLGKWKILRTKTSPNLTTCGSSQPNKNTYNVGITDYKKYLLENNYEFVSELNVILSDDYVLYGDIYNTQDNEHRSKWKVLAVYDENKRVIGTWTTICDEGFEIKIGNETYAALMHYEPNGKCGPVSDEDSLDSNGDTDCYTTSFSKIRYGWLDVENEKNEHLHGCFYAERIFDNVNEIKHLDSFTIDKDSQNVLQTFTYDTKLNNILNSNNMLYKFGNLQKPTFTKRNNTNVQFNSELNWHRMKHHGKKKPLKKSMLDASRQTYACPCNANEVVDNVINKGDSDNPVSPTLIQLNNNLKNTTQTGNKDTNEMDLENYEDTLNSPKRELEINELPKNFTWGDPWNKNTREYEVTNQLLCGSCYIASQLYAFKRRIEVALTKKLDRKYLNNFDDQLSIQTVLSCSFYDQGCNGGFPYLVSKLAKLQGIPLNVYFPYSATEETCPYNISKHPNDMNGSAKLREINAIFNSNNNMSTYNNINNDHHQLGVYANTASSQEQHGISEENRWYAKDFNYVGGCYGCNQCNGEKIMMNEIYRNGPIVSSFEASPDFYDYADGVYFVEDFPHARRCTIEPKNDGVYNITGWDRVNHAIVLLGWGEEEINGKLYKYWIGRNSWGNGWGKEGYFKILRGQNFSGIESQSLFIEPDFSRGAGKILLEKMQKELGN
As for `O[C@H]1CC[C@H](NC2CCSC2)CC1` (stereo partly shown), the “% Inhibition @ 10 uM” value turned out to be 1.88%.

As to `COCCNC(=O)CSc1cc(Cl)nc2ccc(C)cc12`, the “% Inhibition @ 10 uM” value was found to be 5.88%. For `COC(=O)c1sccc1NC(=O)c1cc2c(s1)-c1c(C)cccc1OC2`, the “% Inhibition @ 10 uM” value is listed as -3.08%. For `Cc1cc(C)n(CCc2nc3c4ccccc4nc(SCC(=O)N4CC(C)CC(C)C4)n3n2)n1` (stereo not shown), the “% Inhibition @ 10 uM” value is listed as 0.4%. In the case of `COc1ccc2c(c1)nc(NCCO)n2C`, the “% Inhibition @ 10 uM” value is 3.01%. The value for `CC1=C(C(=O)Nc2ccccc2F)C(c2cccs2)C2=C(O)CCCC2=N1` (stereo not shown) was -6.36%; that for `CCC1=NN(C(=O)c2cccc(C)c2)C(O)(C(F)(F)F)C1` (stereo not shown) was 4.05%; that for `CCOC(=O)N1CCC(NC(=O)Cn2ncc3c4ccccc4n(C)c3c2=O)CC1` was 6.02%.

As for `COc1ccc(-c2csc(/C(C#N)=C/c3cccc(F)c3)n2)cc1`, the “% Inhibition @ 10 uM” value is 1.41%. Consider `CS(=O)(=O)N1CCCC(C(=O)NCc2ccc(F)cc2Cl)C1` (stereo not shown), for which the “% Inhibition @ 10 uM” value is reported as -1.21%.

Regarding `CCc1nc2[nH]nc(N)c2c2c1COC(C)(C)C2`, the “% Inhibition @ 10 uM” value was -0.872%. Consider `O=C(NCc1cccnc1)c1ccc(Cl)c(Cl)c1`, for which the “% Inhibition @ 10 uM” value is on record as 5.99%. On to `O=C(CSCc1ccccc1Cl)Nc1ccc2c(c1)C(=O)NC2=O`, for which the “% Inhibition @ 10 uM” value is given as 3.99%. With `CC(C)c1ccc(CN2CCCN(C)CC2)cc1`, the “% Inhibition @ 10 uM” value worked out at 3.1%. `CCOc1ccccc1N1CCN(Cc2ccc(OC)c(C)c2)CC1`: the “% Inhibition @ 10 uM” value is on record as -3.65%. For the molecule `Cc1cc(Cl)ccc1OCC(=O)n1cnc2ccccc21`, the “% Inhibition @ 10 uM” value is given as -1.1%. With `O=C1c2ccc(S(=O)(=O)c3ccc4c(c3)C(=O)N(CCO)C4=O)cc2C(=O)N1CCO`, the “% Inhibition @ 10 uM” value was -4.43%. With `CCN(CC)CC(=O)Nc1sc2c(c1C#N)CCCC2`, the “% Inhibition @ 10 uM” value is -0.906%. For `COc1cccc2cc(-c3nc(-c4ccc5c(c4)OCO5)no3)c(=O)oc12`, the “% Inhibition @ 10 uM” value was -1.39%.

Regarding `O=C(CNC(=O)c1ccc(F)cc1)c1ccccc1`, the “% Inhibition @ 10 uM” value is -4.39%. The value for `CCC(=O)N1CCN(c2nc3c(c(=O)[nH]c(=O)n3C)n2CC)CC1` was -5.48%; that for `O=C(c1ccc(CSc2nc3ccncc3n2Cc2ccccc2)cc1)N1CCCCC1` was 2.99%; that for `COc1ccc(CNS(=O)(=O)c2cc(-c3cc(C)no3)ccc2C)cc1` was -2.62%. As to `CCC(=O)c1cc2ccccc2oc1=O`, the “% Inhibition @ 10 uM” value is 7.89%. Regarding `N#CC1=C(N)Oc2cc3c(cc2C1c1ccc(OCc2ccccc2F)cc1)OCO3` (stereo not shown), the “% Inhibition @ 10 uM” value is 1.37%. `COc1ccc(Cn2c(CCC(=O)O)nc3ncccc3c2=O)cc1`: the “% Inhibition @ 10 uM” value is on record as -0.72%. The value for `COc1ccccc1CN1CCN(Cc2ccco2)CC1` was -7.09%; that for `COc1ccccc1NC(=O)c1ccccc1NC(=O)CCC(=O)O` was -2.09%.

On to `c1cn(CCCNC2CCCCCC2)cn1`, for which the “% Inhibition @ 10 uM” value is -1.5%. Take `COc1cccc(S(=O)(=O)Nc2ccc(C(=O)Nc3ccc4c(c3)OCCO4)cc2)c1`: the “% Inhibition @ 10 uM” value turned out to be 5.54%. As to `Cc1cc2ncn(C(=O)c3ccc(F)cc3)c2cc1C`, the “% Inhibition @ 10 uM” value is given as -5.28%. For the molecule `CCOc1ccc2ncc(C(=O)c3ccccc3)c(O)c2c1`, the “% Inhibition @ 10 uM” value stood at 1.5%.

In the case of `CCN(Cc1nc(-c2cccc(C)c2)no1)S(=O)(=O)c1ccc(F)cc1`, the “% Inhibition @ 10 uM” value is -0.946%.

As to `COc1ccccc1CNCc1c(C(=O)O)n(Cc2ccccc2C)c2cc(C)ccc12`, the “% Inhibition @ 10 uM” value was 10.5%.

For the molecule `O=C1OC(c2ccc(Br)cc2)=N/C1=C\N1CC2CC(C1)c1cccc(=O)n1C2` (stereo not shown), the “% Inhibition @ 10 uM” value is given as 19.3%. With `CCOCCCNC(=O)C1=C(C)C(=O)OC12CCN(C(C)=O)CC2`, the “% Inhibition @ 10 uM” value came out at 2.62%. Turning to `OCC1CCCCN1Cc1c(Cl)cccc1Cl` (stereo not shown), the “% Inhibition @ 10 uM” value came to 2.1%. `Cc1ccc(C(=O)/C=C(O)/C(O)=C/C(=O)c2ccc(C)cc2C)c(C)c1`: the “% Inhibition @ 10 uM” value was -2.39%. Regarding `CN(C(=O)CN)c1ccc(Br)cc1C(=O)c1ccccc1Cl`, the “% Inhibition @ 10 uM” value is reported as -2.32%. With `COc1cc(OC)cc(C(=O)NCC23C=CC(O2)C2C(=O)N(c4ccc(Cl)cc4)C(=O)C23)c1` (stereo not shown), the “% Inhibition @ 10 uM” value is 1.64%.

As for `O=C(c1ccccc1)N1CC(COc2ccccc2)OC(c2cccs2)O1` (stereo not shown), the “% Inhibition @ 10 uM” value is recorded as -1.06%. Consider `Cc1ccc(/C=C(\NC(=O)c2ccccc2)C(=O)NCCCN2CCOCC2)o1`, for which the “% Inhibition @ 10 uM” value amounted to 3.79%.

Regarding `COc1cc(CNCc2c(C(=O)O)c(C)n(Cc3c(F)cccc3Cl)c2C)cc(OC)c1OC`, the “% Inhibition @ 10 uM” value was -11.3%.

Turning to `Cc1ccc(-c2cc(C(=O)NCc3ccco3)[nH]n2)cc1`, the “% Inhibition @ 10 uM” value came to 0.44%. As for `CCOC(=O)N1CCN(C(=O)Cc2c(C(=O)O)n(C)c3ccccc23)CC1`, the “% Inhibition @ 10 uM” value is on record as 2.84%. The value for `CC(C)CC(C(=O)NCC#N)c1cccc(-c2csc(CN3CCNCC3)n2)c1` (stereo not shown) was 1.7%. The value for `CCOc1ccc(C(=O)N(Cc2ccccc2)c2ccccn2)cc1` was -5.88%; that for `CCOC(=O)C1=C(C)N=c2s/c(=C\c3c(C)[nH]c4ccccc34)c(=O)n2C1c1ccc(OC)cc1` (stereo not shown) was -3.98%; that for `O=C(O)CC(CNS(=O)(=O)c1ccc(Br)cc1)c1ccccc1` (stereo not shown) was -4.49%.

Take `COc1cccc(-n2nnc3c(=O)n(CC(=O)N4CCOCC4)cnc32)c1`: the “% Inhibition @ 10 uM” value was -5.79%. As for `O=[N+]([O-])c1cccc(CN2CCSCC2)c1`, the “% Inhibition @ 10 uM” value was -0.127%. In the case of `CCOC(=O)C1CCN(Cc2cc(Br)c(OC)cc2OC)CC1` it was -3.56%.

For the molecule `Cc1ccc(S(=O)(=O)NCc2ccc(C(=O)N3CCc4ccccc4C3)cc2)cc1`, the “% Inhibition @ 10 uM” value is reported as -5.22%. For `CCN1C(=O)C(O)(CC(=O)c2ccccc2)c2cc(Br)ccc21` (stereo not shown), the “% Inhibition @ 10 uM” value is reported as -0.992%. The value for `COc1ccc(Cc2nnc(NC(=O)COc3ccc(Cl)cc3)s2)cc1OC` was 4.87%. In the case of `COc1ccc(C(=O)Nc2sc3c(c2C(N)=O)CCCC3)cc1OC`, the “% Inhibition @ 10 uM” value is 2.01%. Consider `Cc1noc(C)c1S(=O)(=O)N(CCc1ccccc1)Cc1ccccc1`, for which the “% Inhibition @ 10 uM” value is recorded as 0.128%. Regarding `O=C(Nc1ccncc1)c1cc2c(ccc3ccccc32)oc1=O`, the “% Inhibition @ 10 uM” value is reported as 3.25%. `COC(=O)c1ccc(NC(=O)c2cc(O)cc(O)c2)cc1`: the “% Inhibition @ 10 uM” value amounted to 1.24%. As to `COc1ccc(OC)c(CN2CCN(Cc3ccccc3C(F)(F)F)CC2)c1`, the “% Inhibition @ 10 uM” value is on record as 0.611%. For the molecule `CCOC(=O)C1=C(C)N=C(C)/C(=C(/O)OCC)C1c1ccc(O)cc1` (stereo not shown), the “% Inhibition @ 10 uM” value was -3.77%.

Turning to `Cc1[nH]c2ccccc2c1/C=C(/C#N)C(=O)Nc1ccc(Cl)cc1`, the “% Inhibition @ 10 uM” value was -4.93%. Turning to `COc1ccc(C2C(C#N)=C(N)Oc3[nH]nc(C)c32)cc1COCC(F)(F)F` (stereo not shown), the “% Inhibition @ 10 uM” value is recorded as 2.38%. The value for `CCOC(=O)c1sc2nc(N3CCOCC3)c3c(c2c1N)CCCC3` was -2.87%.
